# Measurements from the supplement of paper PMC12217912.
# Some of the results follow. The full chains were built here from the parent and the listed change. Values near 0.05 are background.
# B1: TEV protease; numbered along this chain (parent)
# chain: MGESLFKGPRDYNPISSSICHLTNESDGHTTSLYGIGFGPFIITNKHLFRRNNGTLVVQSLHGVFKVKDTTTLQQHLVDGRDMIIIRMPKDFPPFPQKLKFREPQREERICLVTTNFQTKSMSSMVSDTSCTFPSGDGIFWKHWIQTKDGQCGSPLVSTRDGFIVGIHSASNFTNTNNYFTSVPKNFMELLTNQEAQQWVSGWRLNADSVLWGGHKVFMVKPEEPFQPVKEATQL
# Variants of: B1
# Test: raw area under fraction-flipped curve 0-4 h after induction (AUC4h, not background-subtracted), DNA-recorder readout of cleavage of the substrate (dimensionless); higher = more cleavage of the substrate by the protease variant
# Details: temperature: 34 °C; time window: 0-4 h after rhamnose induction
# Experimental: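 In vivo DNA recorder in E. coli TOP10(DE3) ΔrhaA at 34 °C. Each TEVp single-site mutant (parent TEVp 0) is paired with a single-site variant of the 7-mer TEVs (canonical ENLYFQ|S). The substrate sits between flexible linkers in a Bxb1-sfGFP-TEVs-SsrA fusion, so cleavage stabilises Bxb1 and speeds flipping of a recombination array, read by NGS. The value is the raw area under the fraction-flipped curve over 0-4 h after rhamnose induction (AUC4h), with ≥20 reads per time point. It is not background-subtracted; inactive controls average about 0.047.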
# 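Note: Bxb1 expression induced with 0.2% (w/v) L-rhamnose at OD600 near 0.5, cultures sampled hourly, flipped fraction per protease–substrate barcode pair counted by paired-end Illumina sequencing.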
Variant,area with substrate ENAYFQS,area with substrate ENDYFQS,area with substrate ENEYFQS,area with substrate ENGYFQS,area with substrate ENHYFQS,area with substrate ENMYFQS,area with substrate ENNYFQS,area with substrate ENPYFQS,area with substrate ENQYFQS,area with substrate ENRYFQS,area with substrate ENTYFQS,area with substrate ENVYFQS,area with substrate ENWYFQS,area with substrate ENYYFQS,area with substrate ENCYFQS,area with substrate ENKYFQS,area with substrate ENFYFQS,area with substrate ENSYFQS,area with substrate ENIYFQS
MGESLFKGPRDYNPISSSICHLTNESDGHTTSLYGIGFGPFIITNKHLFRRNNGTLVVQSLHPVFKVKDTTTLQQHLVDGRDMIIIRMPKDFPPFPQKLKFREPQREERICLVTTNFQTKSMSSMVSDTSCTFPSGDGIFWKHWIQTKDGQCGSPLVSTRDGFIVGIHSASNFTNTNNYFTSVPKNFMELLTNQEAQQWVSGWRLNADSVLWGGHKVFMVKPEEPFQPVKEATQL [G63P],0.0451,0.0635,0.0593,0.0194,0.0425,0.0672,0.0536,0.0482,0.0451,0.0596,0.0507,0.0502,0.0532,0.0733,,,,,
MGESLFKGPRDYNPISSSICHLTNESDGHTTSLYGIGFGPFIITNKHLFRRNNGTLVVQSLHGVFKVKDTTTLQQHLVDGRDMIIIRMPKDFPPFPQKLKFREPQREERICLVTTNFQTKSMSSMVSDTSCTFPSGDGIFWKHWIQTKDGQCGSPLVSTRDGFIVGIHSASNFTNTNNYFTSVPKNFMELLTNDEAQQWVSGWRLNADSVLWGGHKVFMVKPEEPFQPVKEATQL [Q194D],0.0551,0.0686,0.0766,0.0591,,,,0.0598,0.0505,,0.0634,,,0.053,0.0532,0.0408,,,
MGESLFKGPRDYNPISSSICHLTNESDGHTTSLYGIGFGPFIITNKHLFRRNNGTLVVQSLHGVFKVKDTTTLQQHLVDGRDMKIIRMPKDFPPFPQKLKFREPQREERICLVTTNFQTKSMSSMVSDTSCTFPSGDGIFWKHWIQTKDGQCGSPLVSTRDGFIVGIHSASNFTNTNNYFTSVPKNFMELLTNQEAQQWVSGWRLNADSVLWGGHKVFMVKPEEPFQPVKEATQL [I84K],0.0532,0.0495,0.0527,0.0597,0.0654,,0.0521,0.0462,0.0517,,,,0.0502,0.0516,0.0505,,0.054,0.0603,
MGESLFKGPRDYNPISSSICHLTNESDGHTTSLYGIGFGPFIITNKHLFRDNNGTLVVQSLHGVFKVKDTTTLQQHLVDGRDMIIIRMPKDFPPFPQKLKFREPQREERICLVTTNFQTKSMSSMVSDTSCTFPSGDGIFWKHWIQTKDGQCGSPLVSTRDGFIVGIHSASNFTNTNNYFTSVPKNFMELLTNQEAQQWVSGWRLNADSVLWGGHKVFMVKPEEPFQPVKEATQL [R51D],0.0536,,0.0581,,,,,,0.0561,,,0.0937,0.063,,0.0695,0.0743,,0.0656,
MGESLFKGPRDYNPISSSICHLTNESDGHTTSLYGIGFGPFIITNKHLFRRNNGTLVVQSLHGVFKVKDTTTLQQHLVDGRDMIIIRMPKDFPPFPQKLKFREPQREERICLVTTNFQTKSMSSMVSDTSCTFPSGDGIFWKHWIQTKDGQCGSPLVSTRLGFIVGIHSASNFTNTNNYFTSVPKNFMELLTNQEAQQWVSGWRLNADSVLWGGHKVFMVKPEEPFQPVKEATQL [D161L],0.0472,0.0571,0.0545,0.0535,0.0621,,0.0659,0.055,0.0313,0.0404,0.0655,0.0475,,0.047,0.0543,,0.0481,0.0632,0.0636
MGESLFKGPRDYNPISSSICHLTNESDGHTTSLYGIGFGPFIITNKHLFRRNNGTLVVQSLHGVFKVKDTTTLQQHLVDGRDMIIIRMPKDFPPFPQKLKFREPQREERICLVTTNFQTKSMSSMVSDTSCTFPSGDGIFWKHWIQTKDGQCGSPLVSTRDGFIVGIHSASNFTNTNNYFTSVPKNFMELLTNQEAQQWVSGWRLNADSVLWGGHKVFMVKPEEPFQPVKDATQL [E231D],0.0634,,0.0499,,,,,,0.0548,0.0556,0.0955,0.0867,,,,0.0496,,,
MGESLFKGPRDYNPISSSICHLTNESFGHTTSLYGIGFGPFIITNKHLFRRNNGTLVVQSLHGVFKVKDTTTLQQHLVDGRDMIIIRMPKDFPPFPQKLKFREPQREERICLVTTNFQTKSMSSMVSDTSCTFPSGDGIFWKHWIQTKDGQCGSPLVSTRDGFIVGIHSASNFTNTNNYFTSVPKNFMELLTNQEAQQWVSGWRLNADSVLWGGHKVFMVKPEEPFQPVKEATQL [D27F],0.0663,0.0503,0.0632,0.052,,,,,,,0.0429,0.046,,,0.0841,0.0751,0.0687,0.0713,
MGESLFKGPRDYNPISSSICHLTNESDGHTTSLYGIGFGPFIITNKHLFRRNNGTLVVQSLHGVFKVKDTTTLQQHLVDGRDMIIIRMPKDFPPFPQKLKFREPQREERICLVTTNFQTKSMSSMVSDTSCTFPSGDGIFWKHWIQTKDGQCGSPLVSTRDGFIVGIHSASNFTNTNNYFTSVPKNFMELLTNQEAQQWVSGWRLNADSVLWGGHKVFMVKPEEPFQPWKEATQL [V229W],0.0479,0.0685,0.0583,0.0604,0.0515,0.0718,0.0655,0.0488,0.0579,0.0625,0.0636,0.0649,,,0.0681,0.0507,0.0573,0.0827,0.0949
MGESLFKGPRDTNPISSSICHLTNESDGHTTSLYGIGFGPFIITNKHLFRRNNGTLVVQSLHGVFKVKDTTTLQQHLVDGRDMIIIRMPKDFPPFPQKLKFREPQREERICLVTTNFQTKSMSSMVSDTSCTFPSGDGIFWKHWIQTKDGQCGSPLVSTRDGFIVGIHSASNFTNTNNYFTSVPKNFMELLTNQEAQQWVSGWRLNADSVLWGGHKVFMVKPEEPFQPVKEATQL [Y12T],0.0614,0.0552,0.0487,,0.0673,,0.0246,0.076,0.0655,0.0613,,,,,0.0703,0.0671,0.0525,0.0649,
